The campaign covered roughly 110,000 compounds. About 230 (0.21%) showed an effect of 50% or more. The list shows a part of the results.
What follows are molecules tested against DPAP1 (Plasmodium falciparum, UniProt Q8IIJ9) (assay: primary screen, percent inhibition; read by cleavage of a fluorogenic dipeptide substrate; higher = more effect of the substance).
Sequence of DPAP1 (Q8IIJ9 whole entry, looked up): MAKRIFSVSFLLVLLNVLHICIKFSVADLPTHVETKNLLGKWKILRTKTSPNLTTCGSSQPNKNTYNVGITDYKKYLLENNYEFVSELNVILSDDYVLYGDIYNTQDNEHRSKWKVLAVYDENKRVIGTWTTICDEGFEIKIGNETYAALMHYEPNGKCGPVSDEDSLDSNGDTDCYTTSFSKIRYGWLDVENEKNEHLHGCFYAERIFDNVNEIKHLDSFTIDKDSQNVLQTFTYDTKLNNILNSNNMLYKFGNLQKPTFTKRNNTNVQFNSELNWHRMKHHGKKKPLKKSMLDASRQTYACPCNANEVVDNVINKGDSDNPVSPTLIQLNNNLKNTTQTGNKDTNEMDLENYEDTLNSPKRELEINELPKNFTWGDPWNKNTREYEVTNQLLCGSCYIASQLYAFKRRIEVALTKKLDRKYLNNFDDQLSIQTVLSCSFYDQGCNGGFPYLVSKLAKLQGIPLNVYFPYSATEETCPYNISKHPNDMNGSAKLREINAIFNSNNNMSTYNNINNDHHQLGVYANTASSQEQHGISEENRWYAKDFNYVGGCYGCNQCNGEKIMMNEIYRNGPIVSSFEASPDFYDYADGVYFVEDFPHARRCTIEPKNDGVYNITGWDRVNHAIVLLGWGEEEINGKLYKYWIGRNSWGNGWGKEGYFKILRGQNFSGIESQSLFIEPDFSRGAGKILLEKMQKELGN
Parameters: species or system P. falciparum D10 trophozoite lysates; single well
Protocol: HTS was performed in black 384-well plates. The first and last two columns of each plate contained our negative (DMSO) and positive (10 μM JCP410) controls, and the 20 central columns the test compounds at 10 μM. Compounds were first diluted 50-fold into assay buffer (50 mM sodium acetate, 5 mM MgCl2, 10 mM β-mercaptoethanol, and 0.1% CHAPS, pH 5.5) from a 10 mM DMSO stock plates. One microliter of this 200 μM intermediate stock plate was dispensed into the assay plate. […] After 30 min, the reaction was quenched with 20 μL of 0.5 M acetic acid, and the fluorescent intensity measured at 523 nm (λex = 492 nm) using an Analyst HT multimode plate reader (Molecular Devices).
`Cc1ccc2c(S(=O)(=O)O)ccc(O)c2n1` was tested, and the “% Inhibition @ 10 uM” value was -8.11%. With `COc1cccc(-c2nn(C)c3sc(C(=O)NCC4COc5ccccc5O4)cc23)c1` (centres unmarked) the “% Inhibition @ 10 uM” value was -2.29%. `COc1cc(C2C(C(=O)Nc3ccccc3C)=C(C)Nc3ncnn32)cc(OC)c1OC` (centres unmarked) was tested, and the “% Inhibition @ 10 uM” value was -4.91%. `COc1ccc2oc(=O)cc(CN3CCC(C(O)(c4ccccc4)c4ccccc4)CC3)c2c1` was tested, and the “% Inhibition @ 10 uM” value was 20.2%. `Cc1cc(O)c(C(=O)/C=C/c2cccc(O)c2)c(=O)o1` was tested, and the “% Inhibition @ 10 uM” value was 2.74%. With `O=C(CCc1nnc2n(Cc3ccc(F)cc3)c(=O)c3ccccc3n12)NCCCN1CCOCC1` the “% Inhibition @ 10 uM” value was -4.21%. `Cc1ccc(NC(=O)c2c(NC(=O)CCC(=O)O)sc3c2CCCC3)cc1` was tested, and the “% Inhibition @ 10 uM” value was 1.71%. With `O=CN1Cc2ccccc2-c2ccccc2C1` the “% Inhibition @ 10 uM” value was -5.11%. `O=C(Cc1ccccc1)Nc1ncccc1Cl` was tested, and the “% Inhibition @ 10 uM” value was -6.64%. In the case of `COc1ccc(C(=O)Nc2nonc2-c2ccc(C)cc2)cc1`, the “% Inhibition @ 10 uM” value is reported as -1.07%. In the case of `CCOc1ccc(C2C(=O)N(C3CCCCC3)CC(=O)N2Cc2ccc(C)cc2)cc1OC` (centres unmarked), the “% Inhibition @ 10 uM” value is reported as -0.406%. In the case of `O=C(CN1C(=O)C(=O)c2ccccc21)NC1CCCCC1`, the “% Inhibition @ 10 uM” value is reported as -3.25%. In the case of `CCOC(=O)c1[nH]c2ccc(OC)cc2c1NC(=S)N1CCN(c2ccccn2)CC1`, the “% Inhibition @ 10 uM” value is reported as 1.02%. With `CN1C(=O)C(=Cc2cn(C)c3ccccc23)C(=O)N(C)C1=O` the “% Inhibition @ 10 uM” value was -8.57%. In the case of `CC1=C(C#N)C(NC(=O)CCC2CCCCC2)(C(F)(F)F)C(=O)N1` (centres unmarked), the “% Inhibition @ 10 uM” value is reported as 0.221%. With `CCCc1[nH]nc2c1C(c1ccc(F)c(F)c1)C(C#N)=C(N)O2` (centres unmarked) the “% Inhibition @ 10 uM” value was -6.7%. With `CCn1c(C(O)c2ccccc2)nc2ccccc21` (centres unmarked) the “% Inhibition @ 10 uM” value was 5.37%. For `O=S(=O)(NCCc1cccs1)c1ccc2ccccc2c1`, the “% Inhibition @ 10 uM” value was 0.776%. For `COC(=O)c1cccc(-n2c(CCC(=O)O)ccc2-c2cccs2)c1`, the “% Inhibition @ 10 uM” value was 2.32%. `O=C(Nc1ccccc1NC(=O)C1CCCO1)C1CCCO1` (centres unmarked) was tested, and the “% Inhibition @ 10 uM” value was -1.89%. For `COc1cccc(CN2CCSCC2)c1OC`, the “% Inhibition @ 10 uM” value was 1.48%. For `N=C1/C(=C\c2ccc(SCc3ccco3)o2)C(=O)N=C2SC=NN12`, the “% Inhibition @ 10 uM” value was 3.77%. For `O=C(COc1ccccc1)N1CCN(Cc2ccc(Br)cc2)CC1`, the “% Inhibition @ 10 uM” value was 1.39%. In the case of `OC(CN1CCOCC1)(c1ccccc1)c1ccccn1` (centres unmarked), the “% Inhibition @ 10 uM” value is reported as 1.91%. For `Cc1cc(C)n2nc(NC(=O)c3cccnc3)nc2n1`, the “% Inhibition @ 10 uM” value was -4.91%. For `CCCCSc1nnc2c(n1)[nH]c1c(C)cccc12`, the “% Inhibition @ 10 uM” value was 5.75%. For `Cc1cccc(C)c1N1C(=O)c2ccccc2C1=O`, the “% Inhibition @ 10 uM” value was 2.27%. In the case of `O=C(NCc1ccc(-n2cccc2)cc1)c1ccc2c(c1)OCO2`, the “% Inhibition @ 10 uM” value is reported as 1.32%. In the case of `O=C(NCCCN1CCOCC1)c1cc2ccc3cccnc3c2[nH]1`, the “% Inhibition @ 10 uM” value is reported as -0.528%.

From PMC6919601, “Identification of Plasmodium dipeptidyl aminopeptidase allosteric inhibitors by high throughput screening” (PLoS ONE, 2019)
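Also: 30 min substrate incubation versus DMSO and 10 µM JCP410 controls.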
